From the supplement of paper PMC10338343
± gives the standard deviation. This is a selection; strong and weak results do not stand in their true shares.

system: MIWI (PIWIL1) piRISC loaded with piRNA #1 (30 nt); assay: pre-steady-state target cleavage rate (min^-1); MIWI and MILI are mouse PIWI proteins and EfPiwi is from a freshwater sponge; tags in brackets are library labels; higher = faster piRNA-guided slicing of the target; settings: guide: piRNA #1 5'p-UGAGGUAGUAGGUUGUAUAGUAUCCAGAGG; auxiliary factor: 500 nM mouse GTSF1
Procedure, shortened: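 With or without 500 nM GTSF1 partner protein, 1 nM active affinity-purified piRISC carrying one synthetic guide was mixed with 0.1 nM transcribed, DNA-blocked target RNA library in HEPES–potassium acetate buffer at 33 °C for 0–8 or 0–960 min. Uncleaved targets were sequenced and normalised to depth and to weakly complementary targets, three trials were pooled, and k3 was capped at 0.0001 min^-1. The pre-steady-state cleavage rate came from a burst-and-steady-state fit.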

Sequence	pre-steady-state target cleavage rate
GGAGUGGAUACUAUACAACCAACUACCUGA	0.0492 ± 0.0085
GGACUGGAUGACUAUACAACCUACUACCUCA	1.29 ± 0.14
GGAGACCACACUAUACAACCUACUACCUCA	1.36 ± 0.1
GGAGACCUAUGAUAUCAACCUUCAACCUCA	< 0.0001
CCUCUCGAUUCUAUACAACCUACUACCUCA	2.25 ± 0.15
GCUCUGGAUACUAUAGAACCUAGUACCUCA	0.0062 ± 0.0022
GGAGUGGAAUGUAUACAACCUACUACCUCA	0.345 ± 0.043
GGAGACCUAUGUAUACAACCUACGUACCUCA	0.0283 ± 0.0054
GGAGACCAUACUAUACAUCCUACUACGUCA	0.534 ± 0.048
GGAGACCUUACGUAUACAACCUACUACCUCA	0.383 ± 0.055
GGAGACCUAUGUAUACAAGCUACUAGCUCA	0.00597 ± 0.003
GCUCUGGAUACUAUACAACCUAAUACCUCA	1.55 ± 0.12
GGUCUGGAUACUACACAACCUACUACCUCA	1.79 ± 0.1
GGAGACCUUGACUAUACAACCUACUACCUCA	1.48 ± 0.14
GGAGACCAUACUAUACAACCUACUUGCUCA	0.465 ± 0.048
GGAGACCUUACUAUCCAACCUACUACCUCA	1.44 ± 0.086
CCACUGGAUUCUAUACAACCUACUACCUCA	2.08 ± 0.12
GGAGACGAUACUAUACUACCUACUACCUGA	0.812 ± 0.068
GGAGACCUAACUAUACAACCUACUAGCACA	0.116 ± 0.043
GGAGACCUUCCUAUACAACCUACUACCUCA	1.44 ± 0.2

Sequence	pre-steady-state target cleavage rate
GGAGACCUAACAUACAACCUACUACCUCA	0.0132 ± 0.0087
GGACUGGAUACUUAACAACCUACUACCUCA	1.22 ± 0.13
GGUCUGGAUACUAUACAAGGUACUACCUCA	0.381 ± 0.03
GGAGACCUAACUAUUCAACCUACUACCUGA	0.193 ± 0.042
GCUCUGGAUACUAUACAACCUACUACCGCA	1.76 ± 0.12
GGACUGGAUACUAUAGAACCUACUACCUCA	1.37 ± 0.087
GGAGACCUUACUAUACAACCUACUAGGAGA [g6:g22:cont:t1A]	0.0657 ± 0.013
GCUCUGGAUACUAUUCAACGUACUACCUCA	1.15 ± 0.079
GGUCUGGAAACAAUACAACCUACUACCUCA	1.28 ± 0.1
GGAGACCUAUCUUUACAACCUACUACCACA	0.129 ± 0.03
GGAGUGGAAACUAUACAACCUACUAGCUCA	0.0717 ± 0.018
GGAGUGGAUAGUAUACAACCAACUACCUCA	0.0884 ± 0.009
GGAGACCAUACUAUACAACCUACUACCGCA	1.56 ± 0.13
GCUCUGCAUACUAUACAACCUACUAGCUCA	1.13 ± 0.12
GGAGACGAUACUAAACAACCUACUUCCUCA	0.35 ± 0.045
GGAGACCUAAUCUAUACAACCUACUACCUCA	1.03 ± 0.081
GGACUGGAUACUUUUCAACCUACUACCUCA	1.19 ± 0.1
GGACUGGAUUCUAUACAACCUACUACGUCA	0.717 ± 0.071
CCUCUGCAUACUAUUCAACCUACUACCUCA	2.21 ± 0.14
CCUCUGGAUACUAUAGAACCUACUAGCUCA	0.0166 ± 0.0061
